In the supplement of paper PMC11417369:
This is one part of the list.

The sequences below were run on PF3D7_0420300 AP2 domain 1 (GST-tagged) (assay: gcPBM binding intensity (ln(normalized median fluorescence intensity)); higher = stronger DNA binding).
How it was run: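 GST-fused DNA-binding domains of P. falciparum, expressed in E. coli, were applied at about 25 μg on average for 1 h to an Agilent 4 × 180k array of primer-extended double-stranded 36-bp intergenic genomic probes and negative controls. Binding intensity is the highest Masliner-normalised natural-log median intensity across replicate spots of either probe orientation, measured with Alexa488 anti-GST antibody and a 488 nm scan.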

Sequence	gcPBM binding intensity (ln)
TTTTTCACATCTATAAATCATCTAATCAATATTTTT [GTGCAC_negctrl_site444]	9.11
ATTCTAATTAGTAAAGTGCAGATAAAATGATGCCCT [GTGCAC_site9578]	9.08
TTAGAAAGAATGTATTGTACATATATATTATATATA [XGTACX_site7045]	8.97
TGTATATTTTAGTGATGTACTAATATTATTACTAAT [XGTACX_site3952]	9.19
ATATGTTTATTTATTTGTACTTATCATATAATAACA [XGTACX_site5486]	9.35
TGCTTAGCACACTATCTACTTCCTTTGTTTCATAAA [GTGCAC_negctrl_site495]	9.33
TTCATTTATATAATCACACATTTTATCATCTATGTT [CACACA_site4327]	9.47
GTTTTATTCCATTATTGTACTTAATATAAAGAAACT [XGTACX_site3054]	9.38
ATAAATTGAAGTAAATTTGACCTTTTTTTTTTTTTT [GTGCAC_negctrl_site354]	8.93
ATAATAATATGTGGGTGTACATATACACATATATAT [XGTACX_site4356]	9.45
AGAACATGCAAACATGCACACAGAAAAAAAAAATAT [CACACA_site8442]	9.55
CAGCATGGTATACCTATAAAATATATATACTAACAT [TGCATGCA_negctrl_site51]	9.23
ATGTTACACAGACACACACACATAAAAAAACAAAAA [CACACA_site7516]	9.97
TTTTTAAAAAATAAGAAAAAATAAATATATTACAAA [XGTACX_negctrl_site191]	8.94
GGCATATATACATATGGTACACATTTATTAATACCG [XGTACX_site2710]	9.33
CACATACATATATATACACACAAATATATATACGCA [CACACA_site791]	9.65
AGGATATAAAGTTGTGCATGTCAAGTGCACCGTATT [TGCATGCA_site451]	9.3
AGAAAAATCTAAATTCGTACATAACGTTTAAACATA [XGTACX_site2511]	8.97
GATGTGTATATTAAATGTACGAACAGTTGAGGCGAA [XGTACX_site7853]	9.59
CCTAAATAAATGGACACACACATATATATATATATA [CACACA_site1439]	9.49
CTTATATTAAGTATTACACACATATATATAAATGCA [CACACA_site4581]	9.32
TTTTACGTAATATTTATACACACGAACCTTATTAAT [CACACA_site2300]	9.43
TAGAAATAAGAAAAATGTACATATAATATTGAAAGT [XGTACX_site3043]	9.66
TATATATATATAAGAAGTACAGAAAATTAGAAAAAA [XGTACX_site8773]	9.55
AGTCTATAGTAATTTACACACAAAAAAATATCAGGA [CACACA_site7620]	9.74
AGTAGTCTGGAGAAAAGTACATAGTATCTGGTAGCT [XGTACX_site2027]	9.28
TTTATTGATAATATATATATATATATATATATATAT [GTGCAC_negctrl_site552]	8.84
AATATCTTAGTGGATACACACATATAAATGGGTATT [CACACA_site4426]	9.4

Sequence	gcPBM binding intensity (ln)
AAAAAATTAAAAAAAAAAAAATCATGAAAAAAACAA [CACACA_negctrl_site1673]	9.36
TCATATGTTAAACACACACACACACCGAAAAAAACA [CACACA_site9067]	10.2
AAAAAGGAAATAATAACACACATTAGTAATTATAAA [CACACA_site7573]	9.57
CACAGACACGGACACACACACACAAAAAAAAAAAGA [CACACA_site4436]	10.1
TATTAAAAAAATATTTGTACTTAAAATTTATTATAT [XGTACX_site1467]	8.9
TATTTTCTTTAATTAATTATTGGTCTGAATGGGGTT [CACACA_negctrl_site418]	9.1
ACAAAAAAAAAAAAAAAAAGAAGAATATATCTATAT [CACACA_negctrl_site759]	9.16
TATCATACAATATTCACACAAATAAATTGACATATT [CACACA_site5891]	9.27
TTTTTATAAAAATGAACACACACATATATATATATA [CACACA_site9160]	9.42
AATAACACTATTTAACGTACAAAAAAAAAAAAGAAA [XGTACX_site3721]	9.3
ATACTAAAAATGAATGTACACATATATATATATATA [TGCATGCA_negctrl_site209]	9.35
ATATATCTTTATATAGTGCATTAAATATGTTGTAAT [GTGCAC_site9953]	9.17
TATAATAAAATATTTTGTACGTATATTTTAATATTT [XGTACX_site2582]	9.11
AAAAAAAATAAAAATAGTACCCAAAAAATTATGAAT [XGTACX_site6641]	9.66
AGAGGAGTAAAACAAAACAAAGAGAAATAAACACAC [XGTACX_negctrl_site386]	9.84
AATTAATAAATATTATATGTTAATATTTTTTTTGTT [CACACA_negctrl_site1692]	9.06
AAAAAATATAATAATTGTACACATGCACACACAAAT [XGTACX_site1563]	9.83
TTTCATATCTTGTCAAGTACATATTTTTATTTTCTT [XGTACX_site2160]	9.39
ACTTAATATCGGTACACACACAAGATAAGAATTATG [CACACA_site894]	9.82
AAGATAAAATGATGCACACAAAAGGGTGTAATATAT [CACACA_site1706]	9.71
TCTTCTTTTTTTTTTTTGTATTATTATAAATATTAT [CACACA_negctrl_site1668]	9.46
GAAGTTTTCTTAAAGATGCACTTTTTAAAAATAAAA [GTGCAC_site9941]	8.62
TTTTTTTTTTTTAATGCACACAATATATAATATGTA [CACACA_site3694]	9.23
TTTTTTTTTTTTCAATCACACATGTTTTAATTATTT [CACACA_site5532]	9.38
TGTACGTTTTATAACACACACACAAAAAAAAAAAAA [CACACA_site3875]	9.64
TCATTTCACAGACACACACACACAAGATATTTCCTT [CACACA_site7774]	10
TGTAATAATATTTATGTGCACATATATTAAACTATA [GTGCAC_site9584]	9.15
